In patent publication US20060199864A1, “Selection of pH-dependent compounds for in vivo therapy” (priority 2004, published 2006):

Biological target: NR1/NR2B (Rattus norvegicus, UniProt P35439+Q00960)
Conditions: for criteria for selection as an effective compound for therapeutic use (potency boost at least 5 and at least 30% decrease in infarct volume): as indicated in FIG. 1; for mean within the shaded area (criteria for improved drug performance) for NR1/NR2B: FIG. 1

Structure (SMILES)	criteria for selection as an effective compound for therapeutic use (potency boost at least 5 and at least 30% decrease in infarct volume)	mean within the shaded area (criteria for improved drug performance) for NR1/NR2B
C[C@@]12N[C@@H](Cc3ccccc31)c1ccccc12 [(−)MK801, reference compound]	falls within the criteria for selection	
CS(=O)(=O)Nc1ccc(OC[C@@H](O)CNCCc2ccc(Cl)c(Cl)c2)cc1 [Compound 93-4]	falls within the criteria for selection	fall within the shaded area
CCN(CCc1ccc(Cl)c(Cl)c1)C[C@H](O)COc1ccc(NS(C)(=O)=O)cc1 [Compound 93-5]	falls within the criteria for selection	fall within the shaded area
CS(=O)(=O)Nc1ccc(OC[C@@H](O)CN(CCO)CCc2ccc(Cl)c(Cl)c2)cc1 [Compound 93-8]	falls within the criteria for selection	
CCCCN(CCc1ccc(Cl)c(Cl)c1)C[C@H](O)COc1ccc(NS(C)(=O)=O)cc1 [Compound 93-31]	falls within the criteria for selection	fall within the shaded area
CS(=O)(=O)Nc1ccc(OC[C@H](O)CN(CCc2ccc(Cl)c(Cl)c2)Cc2ccccc2O)cc1 [Compound 93-40]	do not fall within the criteria for selection	
CS(=O)(=O)Nc1ccc(OCC(O)CN(CCc2ccc(Cl)c(Cl)c2)Cc2cccc(O)c2)cc1 (stereo not shown) [Compound 93-41]	falls within the criteria for selection	fall within the shaded area
CS(=O)(=O)Nc1ccc(OC[C@@H](O)CN(CCc2ccc(Cl)c(Cl)c2)Cc2ccccc2O)cc1 [Compound 93-43]	do not fall within the criteria for selection	
CC(C)CN(CCc1ccc(Cl)c(Cl)c1)C[C@H](O)COc1ccc(NS(C)(=O)=O)cc1 [Compound 93-97]	does not fall within the criteria for selection	
